Measured values as given in PubChem BioAssay AID588342 (National Center for Advancing Translational Sciences (NCATS), 2011).
Among all 360,000 compounds or so, about 25,000 (6.9%) were called active. Inconclusive results, whose numbers are uncertain, are shown with a selection of clear calls. Calls follow the shape of the dose curve; as a rule, active = well fitted inhibition curve with a large enough effect; inconclusive = small, poorly fitted or top-dose-only effect; inactive = flat fitted curve, though single readings scatter. A potency beside an inconclusive call is a rough fit, not a confirmed value.

Each compound was assayed against Luciferin 4-monooxygenase (Photinus pyralis) (UniProt P08659) (assay: qHTS profiling assay for firefly luciferase inhibitor/activator using purifed enzyme and Km concentrations of substrates (counterscreen for miR-21 project)). Settings: purified FLuc, luminescence inhibition; activity change, negative = inhibition: at 57.5 µM (top of the series).
In short: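 Biochemical qHTS of compounds, final roughly 60 µM downward over six points, against 10 nM purified firefly luciferase using Km concentrations of substrates (10 uM D-luciferin, 10 uM ATP) in Tris acetate pH 7.5 buffer; luminescence output.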
Also: nearly all actives have a fitted effect of over 55% in size.
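For activity change, negative = inhibition in this document: plate controls were vehicle for no effect and reference inhibitor for full effect.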
Potency is read from the fitted curve at half-maximal effect; tags tell the direction and shape of the fitted curve.

Sequence of UniProt P08659 (P08659 whole entry, looked up): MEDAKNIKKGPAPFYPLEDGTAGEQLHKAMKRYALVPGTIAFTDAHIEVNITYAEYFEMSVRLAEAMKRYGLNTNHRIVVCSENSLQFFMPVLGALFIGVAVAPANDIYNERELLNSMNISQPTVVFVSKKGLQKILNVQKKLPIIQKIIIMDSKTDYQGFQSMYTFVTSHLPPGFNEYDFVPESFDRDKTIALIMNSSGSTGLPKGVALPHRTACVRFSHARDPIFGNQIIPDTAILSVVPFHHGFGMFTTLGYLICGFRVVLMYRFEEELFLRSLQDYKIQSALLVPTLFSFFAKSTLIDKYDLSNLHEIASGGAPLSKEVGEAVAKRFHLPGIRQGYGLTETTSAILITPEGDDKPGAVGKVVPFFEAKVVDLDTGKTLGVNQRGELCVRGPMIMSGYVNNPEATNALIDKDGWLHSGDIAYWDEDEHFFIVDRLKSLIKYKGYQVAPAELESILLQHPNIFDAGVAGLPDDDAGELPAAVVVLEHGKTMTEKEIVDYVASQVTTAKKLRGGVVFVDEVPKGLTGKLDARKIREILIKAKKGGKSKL

With Cc1ccc(S(=O)(=O)NC(CC(C)C)C(=O)NCC(C)(C)N2CCOCC2)cc1 (stereo not given) as the compound, how does the “activity change, negative = inhibition” value read?
The value was inactive: 2.25%.

For c1ccc(COc2ccc(OCCN3CCCC3)cc2)cc1, which Potency is on record?
Its Potency is inconclusive: 37.9 µM [inhibitor, single point].

Cc1c(-c2nc(-c3cccnc3)no2)cccc1[N+](=O)[O-] was tested. Which Potency did it give?
Its Potency is inconclusive: 23.9 µM [inhibitor, partial curve, poor fit].

CCCCCCC(=O)Nc1nc(C)c(-c2csc(Nc3ccc(Cl)cc3)n2)s1 was tested. Which Potency did it give?
Its Potency is inconclusive: 26.9 µM [inhibitor, partial curve, poor fit].

How did the Potency turn out when CC(C)(C)c1ccc(OCC(=O)N/N=C/c2ccc(N3CCOCC3)cc2)cc1 was run?
The Potency was active: 5.36 µM.

How did the Potency turn out when COc1ccccc1C(=O)Nc1ccc2c(c1)CCCN2C(=O)c1ccccc1 was run?
Its Potency is active: 9.53 µM.

O=C(NCCCN1CCc2ccccc2C1)C1CCN(c2nnc(-n3cccc3)s2)CC1 was tested. Which Potency did it give?
Its Potency is inconclusive: 26.9 µM [inhibitor, partial curve, poor fit].

How did the Potency turn out when O=C1/C(=C/c2ccccn2)SC(=S)N1c1cccc(O)c1 was run?
Its Potency is inconclusive: 9.53 µM [inhibitor, partial curve].

For CCC(=O)N/C(N)=N/c1nc(C)c2cc(C)c(C)cc2n1, which Potency is on record?
Its Potency is inconclusive: 15.1 µM [inhibitor, partial curve].

For COc1ccccc1NC(=O)Nc1ccc2c(c1)nc(C)n2C, which Potency is on record?
The Potency was active: 1.51 µM.

With Cn1c(-c2ccc(C(F)(F)F)cc2)cc2onc(-c3ccccc3)c2c1=O as the compound, how does the Potency read?
The Potency was active: 0.536 µM.

How did the Potency turn out when Cc1csc(NC(=O)c2nc3nc(C)cc(C)n3n2)n1 was run?
Its Potency is active: 21.3 µM.

O=C(/C=C/c1ccco1)Nc1ccc(F)cc1 was tested. Which Potency did it give?
Its Potency is active: 13.5 µM.

O=C(COc1ccc2ccccc2c1Br)Nc1ncn[nH]1 was tested. Which Potency did it give?
Its Potency is active: 13.5 µM.

Which “activity change, negative = inhibition” value does the source give for CCOC(=O)C1CCCN(c2nc3c(S(=O)(=O)c4ccc(Br)cc4)nnn3c3ccsc23)C1 (stereo not given) here?
The value was inactive: 0.507%.

Which Potency does the source give for Cc1cccc(-c2noc(-c3ccc(NCc4ccco4)c([N+](=O)[O-])c3)n2)c1 here?
The Potency was inconclusive: 9.53 µM [inhibitor, partial curve].

For Cc1ccc(C(C[N+](=O)[O-])c2c(C)[nH]n(-c3ccccc3)c2=O)cc1 (stereo not given), which Potency is on record?
Its Potency is inconclusive: 26.9 µM [inhibitor, partial curve, poor fit].

For c1ccc(-n2ncc3c(NCc4ccccn4)ncnc32)cc1, which Potency is on record?
The Potency was inconclusive: 23.9 µM [inhibitor, partial curve, poor fit].

Which Potency does the source give for O=C(c1ccco1)N1CCN(c2nc3c(F)cc(F)cc3s2)CC1 here?
The Potency was active: 23.9 µM.

Which Potency does the source give for CC(C)(CNC(=O)/C=C/c1ccc(F)cc1)CNC(=O)/C=C/c1ccc(F)cc1 here?
Its Potency is inconclusive: 23.9 µM [inhibitor, single point].

How did the Potency turn out when Nc1nn2c(-c3ccccc3)cc(=O)[nH]c2c1N=Nc1ccc(Br)cc1 was run?
The Potency was active: 21.3 µM.

Which Potency does the source give for O=C(CSc1nnc(-c2ccc(Cl)cc2)o1)N1CCOCC1 here?
The Potency was inconclusive: 23.9 µM [inhibitor, partial curve].

With CC(CN1CCOCC1)OC(=O)c1ccc(Cl)cc1Cl (stereo not given) as the compound, how does the Potency read?
Its Potency is inconclusive: 21.3 µM [inhibitor, partial curve, poor fit].

COc1ccc(CCNC(=O)c2nn(C)cc2Cl)cc1 was tested. Which Potency did it give?
Its Potency is inconclusive: 16.9 µM [inhibitor, partial curve].

How did the Potency turn out when COc1cccc(-c2ccc(-c3noc(-c4ccccc4Br)n3)c(OC)n2)c1 was run?
The Potency was inconclusive: 6.01 µM [inhibitor, partial curve, poor fit].

With Cc1ccc2nc(COc3ccccc3NC(=O)c3ccccc3C)cc(=O)n2c1 as the compound, how does the “activity change, negative = inhibition” value read?
The value was inactive: 1.33%.

Which Potency does the source give for COc1ccccc1NC(=O)Nc1nc(CC(=O)N2CCN(c3ccccc3F)CC2)cs1 here?
Its Potency is inconclusive: 19 µM [inhibitor, partial curve].

For Oc1ccc(NCc2cccc(OCc3ccc(F)cc3)c2)cc1, which Potency is on record?
Its Potency is inconclusive: 26.9 µM [inhibitor, partial curve].

For COC(=O)c1cccc(NC(=O)NC(=O)c2ccc(Cl)cc2)c1, which Potency is on record?
Its Potency is inconclusive: 6.75 µM [inhibitor, partial curve, poor fit].

How did the Potency turn out when COc1ccc(OC)c(NC(=O)c2ccc3c(SCC(=O)O)c4c(nc3c2)CCCC4)c1 was run?
The Potency was inconclusive: 13.5 µM [inhibitor, partial curve].

For Cc1cccc(CCNC(=O)c2ccc3c(c2)nc2n3CCC(C)C2)c1 (stereo not given), which Potency is on record?
Its Potency is inconclusive: 23.9 µM [inhibitor, single point].

Which Potency does the source give for CCOC(=O)c1c(NC(=O)/C=C/C(=O)O)sc(C)c1-c1ccc(C(C)(C)C)cc1 here?
The Potency was inconclusive: 23.9 µM [inhibitor, single point].

With COc1ccc(CCNc2ncccc2C#N)cc1OC as the compound, how does the Potency read?
Its Potency is inconclusive: 26.9 µM [inhibitor, single point].

Which “activity change, negative = inhibition” value does the source give for COCCn1cnc2c1c(=O)n(CC(=O)OCC(=O)NCC(F)(F)F)c(=O)n2Cc1ccccc1 here?
Its value is inactive: 2.58%.

How did the Potency turn out when O=C(/C=C/c1cccc([N+](=O)[O-])c1)c1ccc2c(c1)OCCO2 was run?
The Potency was inconclusive: 8.49 µM [inhibitor, partial curve, poor fit].

Which Potency does the source give for CN(C)c1ccc(NC(=O)c2ccc(COc3cccc(Cl)c3)o2)cc1 here?
The Potency was active: 9.53 µM.

How did the Potency turn out when CC(C)C1Nc2c(C(=O)O)cccc2C(Nc2ccccc2C(=O)O)C1(C)C (stereo not given) was run?
The Potency was inconclusive: 19 µM [inhibitor, single point].

For CCCC1CCC(c2ccc(/C(N)=N/O)cc2)CC1 (stereo not given), which Potency is on record?
Its Potency is inconclusive: 21.3 µM [inhibitor, partial curve, poor fit].

CCOc1ccc(CN(C(=O)c2ccccn2)c2ccc(OC)c(Cl)c2)cc1 was tested. Which Potency did it give?
Its Potency is inconclusive: 21.3 µM [inhibitor, partial curve].

With Cc1ccc(Nc2nnc(SCC(=O)NC3CCS(=O)(=O)C3)s2)c(C)c1 (stereo not given) as the compound, how does the Potency read?
Its Potency is inconclusive: 30.1 µM [inhibitor, single point].

With Cn1cnnc1SCc1ccc(C(=O)N=Nc2c(O)n(C)c3ccccc23)cc1 as the compound, how does the Potency read?
The Potency was inconclusive: 26.9 µM [inhibitor, single point].

For COc1cccc(NC(=O)CN(C)C(=O)CC(NC(=O)c2ccccc2Cl)c2ccccc2)c1 (stereo not given), which “activity change, negative = inhibition” value is on record?
Its value is inactive: 2.16%.

How did the Potency turn out when COc1ccc(Nc2nc(Nc3ccc(OC)cc3)nc(SC3=NCCS3)n2)cc1 was run?
The Potency was inconclusive: 21.3 µM [inhibitor, partial curve, poor fit].

COc1ccc(-c2cc(C(=O)N3CCOCC3)no2)cc1OC was tested. Which Potency did it give?
Its Potency is inconclusive: 37.9 µM [inhibitor, partial curve, poor fit].

Which “activity change, negative = inhibition” value does the source give for CC1=C(C(=O)OCCc2ccccc2)C(c2ccsc2)NC(=O)N1C (stereo not given) here?
Its value is inactive: -3.91%.

Which Potency does the source give for CC(C)CCNC(=O)CN(C(=O)CCC(=O)Nc1nccs1)c1ccc2c(c1)OCCO2 here?
Its Potency is inconclusive: 30.1 µM [inhibitor, partial curve, poor fit].

COc1ccc(OC)c(NC(=O)Cn2c(-c3ccc(Cl)cc3)noc2=O)c1 was tested. Which “activity change, negative = inhibition” value did it give?
Its value is inactive: 10.4%.

Cn1cc(S(=O)(=O)N2CCCCCC2)cc1C(=O)N1CCN(c2cccc(C(F)(F)F)c2)CC1 was tested. Which “activity change, negative = inhibition” value did it give?
Its value is inactive: -17.3%.

For Cc1ccc(-n2c(=O)c3c(c4cc(C)ccc4n3C)n(CC(=O)NCCC3=CCCCC3)c2=O)cc1, which “activity change, negative = inhibition” value is on record?
The value was inactive: 1.07%.

Cc1cc(NC(=O)CSc2nc(-c3cccs3)cc(C(F)(F)F)n2)no1 was tested. Which “activity change, negative = inhibition” value did it give?
Its value is inactive: -0.247%.

With Clc1nnc(NN=C2CCCC2)c2ccccc12 as the compound, how does the Potency read?
Its Potency is inconclusive: 37.9 µM [inhibitor, partial curve, poor fit].

Cc1cc2ccccn2c1C(=O)Nc1ccc(Cl)cc1 was tested. Which Potency did it give?
Its Potency is inconclusive: 2.13 µM [inhibitor, full curve].

With Cc1ccc(S(=O)(=O)NC(=O)NCc2ccccc2)cc1 as the compound, how does the “activity change, negative = inhibition” value read?
Its value is inactive: -12.8%.

Which Potency does the source give for O=C(O)C1CCC(c2ccc(-c3ccccc3)cc2)CC1 (stereo not given) here?
The Potency was active: 6.75 µM.

With CCc1ccc(NC(=O)C2CCN(S(=O)(=O)c3cccs3)CC2)cc1 as the compound, how does the “activity change, negative = inhibition” value read?
Its value is inactive: -4.13%.

How did the Potency turn out when Cc1cc(C)c2c(N)c(C(=O)Nc3ccccc3Br)sc2n1 was run?
The Potency was inconclusive: 3.01 µM [inhibitor, full curve].

Which Potency does the source give for c1ccc(-c2ccc(SCc3cccnc3)nn2)nc1 here?
The Potency was inconclusive: 19 µM [inhibitor, single point].

For O=C(O)c1cccc(NC(=O)c2ccc(N3C(=O)c4ccc(C(=O)Nc5cccc(C(=O)O)c5)cc4C3=O)cc2)c1, which Potency is on record?
The Potency was active: 26.9 µM.

How did the “activity change, negative = inhibition” value turn out when COc1cc(C(O)c2nc3ccccc3s2)cc(OC)c1OC (stereo not given) was run?
Its value is inactive: -1.05%.

With CC(=O)Cn1cnc2sc(-c3ccccc3)cc2c1=O as the compound, how does the Potency read?
The Potency was active: 9.53 µM.

With CCOC(=O)CN(C)C(=O)CCc1nnc(-c2ccc(-c3ccccc3)cc2)o1 as the compound, how does the Potency read?
Its Potency is inconclusive: 23.9 µM [inhibitor, single point].

Cc1cc(C(F)F)nn1CC(=O)NCc1ccc(Cl)cc1Cl was tested. Which Potency did it give?
Its Potency is inconclusive: 42.6 µM [inhibitor, single point].

CC(C)(C)c1ccc(C(=O)CCC(=O)NCc2ccccc2)cc1 was tested. Which Potency did it give?
Its Potency is inconclusive: 21.3 µM [inhibitor, partial curve, poor fit].

Which Potency does the source give for CCS(=O)(=O)n1nc(-c2ccccc2)nc1SCc1ccccc1 here?
Its Potency is active: 10.7 µM.

O=S(=O)(O)c1cc(O)c2c(O)c(N=Nc3cc(Cl)ccc3O)c(S(=O)(=O)O)cc2c1 was tested. Which Potency did it give?
The Potency was active: 21.3 µM.

With COc1ccc(NC(=O)CC2SC(N3CCCCC3)=NC2=O)cc1OC (stereo not given) as the compound, how does the Potency read?
Its Potency is inconclusive: 26.9 µM [inhibitor, partial curve, poor fit].

How did the Potency turn out when Cc1cc(C)cc(NC(=O)CSc2nccn2Cc2ccco2)c1 was run?
Its Potency is inconclusive: 26.9 µM [inhibitor, single point].

COc1ccc(CCN(C)C(=O)CNC(=O)c2ccc3c(c2)OCO3)cc1OC was tested. Which “activity change, negative = inhibition” value did it give?
The value was inactive: -0.792%.

Which “activity change, negative = inhibition” value does the source give for CC(=O)c1c(C)oc2c(Cl)cc(NS(=O)(=O)c3cc(C)c(C)cc3C)cc12 here?
Its value is inactive: -2.03%.

How did the Potency turn out when CC(SCc1cn2cc(Cl)ccc2n1)C(=O)O (stereo not given) was run?
The Potency was inconclusive: 16.9 µM [inhibitor, partial curve].
